In all, about 340,000 compounds went through this assay and about 170 (0.05%) were called active. Not shown: some 26% with an inconclusive outcome. Calls come from the whole dose curve; as a rule, active = well fitted inhibition curve with a large enough effect in the signal ratio, with a control signal flat (not every such curve was filed as active); inconclusive = small, poorly fitted or top-dose-only effect, or effect the other way, or a change in a side signal; inactive = flat fitted curve, though single readings scatter; the % refers to the signal ratio. Only a part is listed here, and it is no random draw.
Experiment: qHTS Assay to Find Inhibitors of Chronic Active B-Cell Receptor Signaling;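 for activity change, negative = inhibition: plate controls were basal doxycycline-induced cells for no effect and cells given 10 µM MG132 for full effect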
Details: ABC-DLBCL IkBa-CBG/CBR reporter, luminescence ratio (green luciferase fused to IkBa over red control in TMD8 lymphoma cells), 4 h; series mostly up to 46.1 µM; activity change, negative = inhibition: at the top concentration
Summary of the method: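 Compounds up to 46 uM were incubated four hours with TMD8 cells whose green CBG68 luciferase is fused to IkappaBalpha; red CBR luminescence normalised the signal, and concentration-effect curves were fitted to fusion, red and ratio data.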
Potency is the fitted concentration of half-maximal effect.

Activity change, negative = inhibition, inactive:
CC(C)(C)[C@@H]1COC(=O)[C@H](Cc2ccc(F)cc2)CC/C=C\C[C@H](CC(=O)N(CCO)Cc2ccccc2)C(=O)N1 2.05%, Clc1cccc(-c2ccc3ncnc(NCc4cccs4)c3c2)c1 -7.48%, O=C(C[C@H]1C/C=C\CC[C@H](Cc2ccc(F)cc2)C(=O)OC[C@H]2CCCN2C1=O)N[C@@H](CO)Cc1ccccc1 0.795%, O=C(O)[C@@H]1CCCN1S(=O)(=O)c1cccc2cccnc12 -0.815%, O=C(COCc1ccccc1)N[C@@H]1c2ccccc2CC[C@@H]1OCc1ccccc1 3.28%, C=CCOC(=O)C1=C[C@@H](c2cn(C(C)=O)c3ccccc23)C[C@@H](OCCCCO)O1 -11.6%, COC(=O)C1=C(C)N(Cc2ccccc2)C(=NCCc2ccccn2)N[C@H]1c1cccc(C(F)(F)F)c1 0.248%, CC(=O)C[C@H](O)CC(=O)[C@@H]1OC(=O)CCCCCc2ccccc21 5.04%, CCOC(=O)N1CCN(S(=O)(=O)N2CCCC(C(=O)NCc3ccc(OC)cc3OC)C2)CC1 (stereo unspecified) -0.554%, COc1ccc(/C=C(\NC(=O)c2ccccc2)C(=O)N2CCC(C)CC2)cc1 4.15%, C=CC[C@@H](CC(=O)NCCO)C(=O)N[C@H](COC(=O)[C@H](CC=C)CC(=O)OC(C)(C)C)Cc1c[nH]c2ccccc12 -5.83%, CC(C)(C)OC(=O)C[C@H]1C/C=C\C[C@@H](CC(=O)NCCO)C(=O)N[C@H](C(C)(C)C)COC1=O 0.885%, CCN1C(=NCc2cc(OC)c(OC)c(OC)c2)N[C@@H](c2cccc(C(F)(F)F)c2)C(C(=O)OC)=C1C -6.31%, COc1ccc(C2Nc3ccccc3C(=O)N2Cc2ccco2)cc1CN1C(=O)c2ccccc2C1=O (stereo unspecified) -1.5%, Oc1ccc(C[C@@H]2CNCCN2CCCCC2CCCCC2)cc1 0.585%, CCOC(=O)C1=C(C)NC(C)=C(C(=O)OC)C1c1cccc([N+](=O)[O-])c1 (stereo unspecified) -16.5%, C[C@H]1NC(=O)[C@@]2(C)[C@@H](c3ccccc3)[C@H]3COc4ccccc4[C@@H]3N2C1=O -0.129%, COC(C[C@H]1O[C@@H]1[C@@H](O)[C@H](C)OCc1ccccc1)OC -1.35%, Cc1ccc(C(O)(C(=O)NNc2ccc3ccccc3n2)c2ccc(C)cc2)cc1 -4.41%, C=CCC[C@H](Cc1ccc(F)cc1)C(=O)OC[C@H](Cc1c[nH]c2ccccc12)NC(=O)[C@@H](CC=C)CC(=O)N[C@@H](CO)Cc1ccccc1 -0.163%, CC(C)(C)OC(=O)C[C@H]1C/C=C\C[C@@H](CC(=O)N(CCO)Cc2ccccc2)C(=O)N2CCC[C@@H]2COC1=O 2.27%, O=C(C[C@@H]1C/C=C\C[C@H](NC(=O)OCC2c3ccccc3-c3ccccc32)C(=O)OC[C@@H]2CCCN2C1=O)N[C@@H](CO)Cc1ccccc1 -2.36%, O=C(N/N=C/C(Cl)=C/c1ccccc1)c1cnccn1 -20.4%, CC12CCCC[C@@H]1CCC1C2CCC2(C)C1CC[C@@]2(O)CNCCO (stereo partly specified) 0.217%, Cc1cccc(-c2ccc3ncnc(NCc4cccnc4)c3c2)c1 -17.4%, CC(C)(C)OC(=O)N[C@@H](C(=O)OC(C)(C)C)c1ccc(Br)cc1 14.6%, CC(C)CCNC(=O)c1ccc2c(c1)N(C)C(=O)c1ccccc1S2 -5.41%, COc1ccc(C(C)n2c(C)c3c(C)nnc(C)c3c2C)cc1 (stereo unspecified) 4.63%, COc1ccc(CCNC(=O)c2ccc(CS(=O)(=O)Cc3cccc(C)c3)o2)cc1OC -0.0419%, C[C@H]1COC(=O)[C@@H](CC(=O)OC(C)(C)C)C/C=C\C[C@H](CC(=O)NCCO)C(=O)N1 4.08%, CC(=O)c1ccc(NS(=O)(=O)c2ccc(-c3cnc(C4CC4)o3)cc2)cc1 20.5%

Potency, active:
CCOc1ccc(N(CC(=O)Nc2ccccc2OC)S(=O)(=O)c2ccccc2)cc1 15.8 µM, COc1ccc(Nc2cc3n(c(=O)n2)CCc2cc(OC)c(OC)cc2-3)c(C)c1 17.8 µM, COc1ccc(-c2ccc(CCC(=O)O)n2-c2ccccc2O)cc1 15.8 µM, O=C(Oc1c(CN2CCOCC2)cc(Cl)c2cccnc12)c1ccccc1F 3.55 µM, COc1cc2c(cc1OC)C(SC)=NC(C)(C)C2 16.4 µM
